No constants are given. Whether binding was seen depends on the method and setting. Binding seen in cells or lysates may run through a third protein. Tags and fused reporters may be left off the sequences shown.
Biological target: T1, FLAG-tagged PI3KAP/XB130 deletion mutant, amino acid residues 186-843 (mouse) (UniProt Q5DTU0)
T1 sequence: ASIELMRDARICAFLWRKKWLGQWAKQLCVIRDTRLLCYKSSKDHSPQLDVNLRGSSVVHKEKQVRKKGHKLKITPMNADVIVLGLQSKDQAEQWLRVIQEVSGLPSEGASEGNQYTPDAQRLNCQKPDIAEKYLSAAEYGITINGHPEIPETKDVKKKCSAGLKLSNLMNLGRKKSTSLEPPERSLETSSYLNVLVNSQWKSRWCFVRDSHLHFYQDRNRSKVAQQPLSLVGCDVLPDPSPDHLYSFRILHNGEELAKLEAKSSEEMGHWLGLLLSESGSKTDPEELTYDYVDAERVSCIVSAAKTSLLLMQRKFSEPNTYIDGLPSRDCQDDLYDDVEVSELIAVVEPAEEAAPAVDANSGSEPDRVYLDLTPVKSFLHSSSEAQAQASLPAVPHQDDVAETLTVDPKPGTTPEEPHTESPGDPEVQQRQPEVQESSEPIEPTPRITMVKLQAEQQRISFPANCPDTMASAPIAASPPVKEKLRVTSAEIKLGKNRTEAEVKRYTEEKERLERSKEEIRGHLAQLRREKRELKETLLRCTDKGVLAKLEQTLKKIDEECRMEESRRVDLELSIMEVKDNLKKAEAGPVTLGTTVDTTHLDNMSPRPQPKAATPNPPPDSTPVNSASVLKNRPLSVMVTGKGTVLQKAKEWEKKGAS
Test: co-IP; GFP-PI3KAP/XB130 co-transfected with full-length or deletion mutants of FLAG-tagged PI3KAP/XB130 into HEK293T cells; lysates immunoprecipitated with anti-FLAG M2 agarose, immunoblotting

binding: no binding
B1: GFP-fused PI3KAP/XB130 (protein, UniProt Q5DTU0-2 1-843)
chain: MERYKAQGCCCLVVQRRILQVSASLEQLLTELDDFLKVLDQENLSSAAVLKKSGLSELLRLYTKSSSSDEEYIYMNKVSVNGEQNSASPDKVPEEQGPLTNGEPSQHSSAPQKSLPDLPPPKMIPERKQPTVPKIESPEGYYEEAEPFDRSINEDGEAVSSSYESYDEDENSKGKAAPYQWPSPEASIELMRDARICAFLWRKKWLGQWAKQLCVIRDTRLLCYKSSKDHSPQLDVNLRGSSVVHKEKQVRKKGHKLKITPMNADVIVLGLQSKDQAEQWLRVIQEVSGLPSEGASEGNQYTPDAQRLNCQKPDIAEKYLSAAEYGITINGHPEIPETKDVKKKCSAGLKLSNLMNLGRKKSTSLEPPERSLETSSYLNVLVNSQWKSRWCFVRDSHLHFYQDRNRSKVAQQPLSLVGCDVLPDPSPDHLYSFRILHNGEELAKLEAKSSEEMGHWLGLLLSESGSKTDPEELTYDYVDAERVSCIVSAAKTSLLLMQRKFSEPNTYIDGLPSRDCQDDLYDDVEVSELIAVVEPAEEAAPAVDANSGSEPDRVYLDLTPVKSFLHSSSEAQAQASLPAVPHQDDVAETLTVDPKPGTTPEEPHTESPGDPEVQQRQPEVQESSEPIEPTPRITMVKLQAEQQRISFPANCPDTMASAPIAASPPVKEKLRVTSAEIKLGKNRTEAEVKRYTEEKERLERSKEEIRGHLAQLRREKRELKETLLRCTDKGVLAKLEQTLKKIDEECRMEESRRVDLELSIMEVKDNLKKAEAGPVTLGTTVDTTHLDNMSPRPQPKAATPNPPPDSTPVNSASVLKNRPLSVMVTGKGTVLQKAKEWEKKGAS
